Sequences with one replicate were seen in a single cluster, so their values are uncertain.
Test system: ATP
Experiment: switch fluorescence ratio, 500 uM ATP over buffer (Cy3 cluster intensity, sum of 5 cycles each) (fold (ratio)); higher = stronger signal-on switching upon ATP binding; sequences stand for … in TCGTCGGCAGCGTCAGATGTGTATAAGAGACAGTTTTTTTTTTTTTTTTTTTTTTTTT…TC
Conditions: aptamer strand: ATP DNA aptamer (quencher-CACCTGGGGGAGTATTGCGGAGGAAGG + anchor), 100 nM annealed; ATP concentration: 500 uM; one replicate
Summary of the method: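 Values give the fluorescence ratio for each switch-domain sequence, averaged from per-cluster ratios of summed target-cycle to summed buffer-cycle Cy3 intensity. The Cy3-labelled switching-strand clusters sat on a modified Illumina MiSeq flow-cell, were annealed to 100 nM quencher-labelled ATP aptamer, and were imaged in selection buffer, then after 15 min with 500 uM ATP at 22 °C. Five cycles ran with NaOH stripping and re-annealing between them, and clusters outside 100-1000 RFU were excluded.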
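Note: ATP exposure 15 min at 22 °C before imaging.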

Row | Sequence | switch fluorescence ratio
1 | TTTAGACTAT | 0.987
2 | GAAATTACAT | 1.03
3 | GGTTTTAACG | 1.04
4 | TCCCCGACCG | 1.25
5 | CAGAGCTGAT | 1.03
6 | ATAGCGAATG | 0.996
7 | TGTGTTTG | 0.996
8 | GGTAGAACCT | 1.37
9 | GATTGGAGTG | 1
10 | AGCAGAATGC | 1.01
11 | ATCGGGATA | 0.999
12 | TAACTGATTA | 1.04
13 | TTGACAGCCT | 1.06
14 | GGAAAGCCGG | 0.993
15 | CGTAAATCTT | 1.02
16 | GAGGGGTCAC | 1.03
17 | TCCCGGGGAT | 1.06
18 | ACAAGCCTTA | 1.02
19 | AATAAATTCT | 0.997
20 | TAGTTAGGCC | 1.01
21 | GGTCTATGAG | 0.979
22 | ATTAAAATAA | 0.987
23 | ACGCTCTAC | 3.71

Row | Sequence | switch fluorescence ratio
24 | CTACCAAAGT | 1.02
25 | ATGCTTGTTT | 1
26 | CGGAGTGCAT | 1.05
27 | GTGTAAAAAT | 1.05
28 | TCGAAGCGAT | 3.3
29 | AACAAAGCGC | 1.05
30 | TACATGTGAT | 0.945
31 | ACGTTGTGGT | 0.945
32 | TTATGTTAG | 1.01
33 | TGAATTTCT | 0.998
34 | GGCCCGGAG | 1.07
35 | GTGCGCGTTT | 1.01
36 | GTTATCAACG | 1
37 | GGGGGCAAAG | 0.992
38 | AGTCTCTTGA | 1.03
39 | ATTTATGGCT | 1.01
40 | ATCCCGGTG | 1.84
41 | TCGTGGATTT | 0.97
42 | AGACAATTGG | 0.991
43 | CAGATTGGTA | 0.966
44 | CTTAGTCTCG | 1.03
45 | TATAGTACA | 1.03
46 | GGCTGATTCG | 0.992

Row | Sequence | switch fluorescence ratio
47 | CTCTGTGCCT | 1.04
48 | GGTTTCAGGT | 1.05
49 | ACCAGCGATA | 3.32
50 | TTTGCTGGGC | 1
51 | TAGCGTGACA | 1.03
52 | CTAACTTTCT | 1.03
53 | GGCCGATACG | 1.03
54 | TCATAATGCT | 0.981
55 | AATTCGTTTG | 0.964
56 | TGGCGTTCTG | 0.983
57 | ACTTTTAGAT | 1.04
58 | AGATGAATTT | 0.97
59 | CAGGACGTTG | 0.973
60 | CAGCCATCTC | 1.18
61 | TGGTTAGCTG | 1.06
62 | AGGTTGTG | 0.984
63 | CTGTGACGC | 1.03
64 | AGCAGTAGAT | 1.07
65 | TACCCCCGGA | 1.24
66 | GCAGTGACGC | 1.07
67 | CGGGTTACCA | 0.993
68 | AAGATAAGC | 0.989
69 | GGGGGGTCG | 1.04

Row | Sequence | switch fluorescence ratio
70 | AATGTCCTCA | 1.01
71 | CGCGGCCTCA | 1.13
72 | ATTACGTGGT | 0.977
73 | GTCCCCCGTG | 2.63
74 | TCAAGAAACG | 1.04
75 | GCGTTCTTTG | 1.02
76 | CGTGAACTTT | 1.03
77 | CCATTAGCTT | 1.09
78 | GTTTTTTCTA | 0.989
79 | CTGTTCCTAT | 1
80 | TGGCTCAACT | 1
81 | ATGGGTATTA | 0.985
82 | ACTTTGGGCT | 0.991
83 | CGGCCCGTAC | 1.28
84 | GCGATGGGAA | 0.981
85 | ATAGAGTTGC | 0.974
86 | AGGCCTAGGA | 0.964
87 | TATGCGATTT | 0.922
88 | ACCCCTAGTC | 1.09
89 | CGGATGTCAA | 0.993
90 | TTTGCTCTTC | 1.02
91 | GTAGCCTTTC | 1.49
92 | TGTTTAGGCT | 0.957

Row | Sequence | switch fluorescence ratio
93 | CCGACATTTG | 0.98
94 | CGGTCGACAG | 1.01
95 | TATGAAAAAA | 0.998
96 | TATCGCCAGG | 1.36
97 | AAGATGGAGT | 1
98 | GTGAATTGCT | 0.991
99 | AGCGTACCGT | 1.03
100 | TGGGTCGTCT | 1.05
101 | ACAGTCTGAA | 0.957
102 | TAGACGTCTC | 0.976
103 | CTTGCCACGG | 0.993
104 | ATAGTATACT | 1.02
105 | ATAATGAGAT | 0.979
106 | AATGCCCAGG | 3.68
107 | CAGTATCATT | 0.996
108 | TGACGGCTGT | 1.01
109 | TCTCCTAGTG | 1.14
110 | GCGACTGATT | 0.999
111 | TCTGATGCAA | 3.8
112 | GAGCGATGCG | 1.26
113 | AGATATACTC | 1.11
114 | CAGGCCGAAC | 1.41
115 | CGAGCGGCCC | 1.11

Row | Sequence | switch fluorescence ratio
116 | AGAAGGGACC | 1.03
117 | CTCCATTTTG | 1.04
118 | GGCATCAAGA | 0.976
119 | AGCAGGCCCA | 1.08
120 | TGCAAGCTAC | 2.36
121 | CCGCAGTGGA | 2.76
122 | ACCTAATGCA | 1.07
123 | ATGTTGCGG | 1.02
124 | ACTCCTTATG | 1.06
125 | GCTGCTAGGA | 0.99
126 | CGACGCGAGG | 3.35
127 | CAGCATTATA | 1.12
128 | GGTGGTATAA | 0.974
129 | AGTAATTGCT | 1.01
130 | AGGCAACATC | 1.08
131 | AACAGGGACG | 0.993
132 | CAATCCTTCC | 2.31
133 | TTATGGCAAA | 1.01
134 | TTGGCCAGCA | 1.02
135 | CGCGAGAAGT | 1.01
136 | TCTCTCGATG | 0.983
137 | TCGGGCTTCT | 1.04
138 | AAGAGGGCAA | 1.1

Row | Sequence | switch fluorescence ratio
139 | GAGTGTTGGA | 1.01
140 | TAACCCTAA | 1.04
141 | AGCCTGTAAT | 0.983
142 | CGTCAGTTTG | 0.968
143 | TGGCTATTCT | 1.03
144 | AAGTTCGAG | 1.02
145 | ACACGCGTGT | 0.995
146 | CGGTACTATG | 1
147 | GATCGGGACC | 0.979
148 | TATAAGCTTT | 0.993
149 | GTTCGCATGT | 1.08
150 | GCGAAGGGCG | 0.992
151 | TAGAAGTAAT | 0.988
152 | ATCTGAGCGG | 0.956
153 | TTGTCTTGCC | 1.04
154 | GCCATACTTC | 1.24
155 | TTTTGGGTCT | 0.976
156 | ATGCATGAGC | 1.04
157 | ACACATCTTA | 1.02

From the supplement of paper PMC10126150
